PubChem BioAssay AID602233 (National Center for Advancing Translational Sciences (NCATS), 2012)
Screen size: about 380,000 compounds; about 170 (0.045%) were called active. Inconclusive means that the source gave no clear call. Such entries were picked first, then a sample of the others. Calls come from the whole dose curve; as a rule, active = well fitted inhibition curve with a large enough effect; inconclusive = small, poorly fitted or top-dose-only effect; inactive = no such curve, though single readings can be large or run the other way. No potency is given beside an inconclusive call; the fits are too rough. *1 amine or outer side, *2 acyl side, *3 side chain or, on linkers, in order; H or OH if unused. Where a SMILES comes first, the peptide text is derived from it. Bridges are numbered along the chain shown (N, C = ends). [ ]: non-standard residue; d: D form. ξ: configuration not given here. hSer(Ph(2-I,4-NO2,6-CO)) = O=C([C@H](CCOc1c(I)cc([N+](=O)[O-])cc1C(=O)[*:3])N[*:1])[*:2]; ξD = NC(CC(=O)O)C(=O)O

Each compound was assayed against Phosphoglycerate kinase, glycosomal (Trypanosoma brucei brucei) (UniProt P07378) (assay: qHTS Assay to Find Inhibitors of Phosphoglycerate Kinase). Settings: PGK/GAPDH coupled, Kinase-Glo luminescence, 60 min; series mostly up to 57.5 µM; activity change, negative = inhibition: at the top concentration.
Method in brief: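 Recombinant glycosomal PGK reaction used 1,3-bisphosphoglycerate generated in-well by GAPDH (100nM final) in 100mM TEA pH 7.6, 5mM MgCl2, 0.01% Tween-20. After 60 minutes at room temperature, ATP was read by Kinase-Glo Plus luminescence end-point.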
% is set by controls: 0 for no effect and ±100 for the full control effect; potency is the fitted concentration of half-maximal effect; tags give direction and shape of the fitted curve.
Note: nearly all actives have a fitted effect of over 60% in size.

Q: For `CCOC(=O)c1c(C)n(Cc2ccc3c(c2)OCO3)c2ccc(O)cc12`, which “outcome” value is on record?
A: inactive

Q: With `N#CC(C#N)=NNc1ccc(S(N)(=O)=O)cc1` as the compound, how does the Potency read?
A: inconclusive [inhibitor, partial curve]

Q: With `COc1ccc(C)cc1NC(=O)c1cccn(Cc2ccccc2Cl)c1=O` as the compound, how does the “activity change, negative = inhibition” value read?
A: inactive: -1.01%

Q: How did the “outcome” value turn out when `O=C(O)COc1ccc(Cl)cc1Cl` was run?
A: inactive

Q: With `C[n+]1c(-c2ccccc2)c2cc(N)ccc2c2ccc(N)cc21` as the compound, how does the “activity change, negative = inhibition” value read?
A: inactive: -2.18%

Q: For `CCc1nnc(NS(=O)(=O)c2ccc(N=Cc3c(O)n(-c4ccc(Cl)cc4)c(=O)[nH]c3=O)cc2)s1`, which “activity change, negative = inhibition” value is on record?
A: inactive: -8.69%

Q: `NC(=O)C(CC(=O)O)NC(=O)[C@@H]1CCOc2c(I)cc([N+](=O)[O-])cc2C(=O)N[C@@H](CO)C(=O)N[C@@H](Cc2ccc(O)cc2)C(=O)N1` (some centres undefined) (SY[hSer(Ph(2-I,4-NO2,6-CO))][ξD]-NH2; lactam N-3) was tested. Which Potency did it give?
A: inconclusive [inhibitor, single point]

Q: How did the Potency turn out when `Oc1c(Br)c(Br)c(Br)c(Br)c1Br` was run?
A: inconclusive [inhibitor, single point]

Q: `O=C1NC(=S)N(c2ccc(F)cc2)C(=O)/C1=C\c1ccoc1` was tested. Which Potency did it give?
A: active: 10 µM

Q: How did the Potency turn out when `O=C(c1cccc2ccccc12)C1CCCN(C2CCC2)C1` (centres undefined) was run?
A: inconclusive [inhibitor, single point]

Q: `Cc1ccc(N2C(=O)/C(=C/c3ccc(CN(CCC#N)S(C)(=O)=O)o3)C(=O)NC2=S)cc1` was tested. Which Potency did it give?
A: inconclusive [inhibitor, partial curve]

Q: Which “activity change, negative = inhibition” value does the source give for `O=C(Nc1ccc2c(c1)OCCO2)c1cccn(Cc2cccc(F)c2)c1=O` here?
A: inactive: -9.8%

Q: With `C=CCN1C(=O)NC(=O)/C(=C/c2ccoc2)C1=O` as the compound, how does the Potency read?
A: inconclusive [inhibitor, partial curve, poor fit]

Q: Which Potency does the source give for `COc1ccc(C/C(=N\OC(C)=O)c2ccc(OC)cc2)cc1` here?
A: inconclusive [inhibitor, partial curve, poor fit]

Q: For `Cc1cccc(N2C(=O)/C(=C/N3CCN(C(=O)c4ccco4)CC3)C(=O)NC2=S)c1`, which “activity change, negative = inhibition” value is on record?
A: inactive: -14.1%

Q: How did the Potency turn out when `O=C1NC(=O)C(=Cc2ccco2)C(=O)N1` was run?
A: active: 11.2 µM

Q: For `Cc1nn(C2CCOC(C)(C)C2)c2c1C(c1ccc(OC(C)C)cc1)SCC(=O)N2` (centres undefined), which “activity change, negative = inhibition” value is on record?
A: inactive: -9.61%

Q: Which Potency does the source give for `COc1ccc(CN2C(=O)NC(=O)/C(=C\c3ccco3)C2=O)cc1` here?
A: inconclusive [inhibitor, single point]

Q: `CCOc1cccc(N2C(=O)/C(=C/c3ccco3)C(=O)NC2=S)c1` was tested. Which Potency did it give?
A: inconclusive [inhibitor, partial curve]

Q: For `O=c1[nH]c(=O)n(-c2ccccc2F)c(O)c1C=NCCC1=CCCCC1`, which “outcome” value is on record?
A: inactive

Q: Which “activity change, negative = inhibition” value does the source give for `CCCCCCC[n+]1ccc(-c2cc[n+](CCCCCCC)cc2)cc1` here?
A: inactive: 4.12%

Q: Which Potency does the source give for `O=C1NC(=O)N(Cc2ccco2)C(=O)/C1=C/c1ccc(-c2cccc([N+](=O)[O-])c2)o1` here?
A: inconclusive [inhibitor, partial curve, poor fit]

Q: `COc1ccc(CN2C(=O)NC(=O)/C(=C/c3ccc([N+](=O)[O-])s3)C2=O)cc1` was tested. Which Potency did it give?
A: inconclusive [inhibitor, partial curve]

Q: With `CN1CCN(CC#CCOc2ccc(Cl)cc2)CC1` as the compound, how does the “activity change, negative = inhibition” value read?
A: inactive: -1.69%

Q: `COc1ccc(OC)c(CC(=O)O)c1` was tested. Which “activity change, negative = inhibition” value did it give?
A: inactive: -7.32%

Q: With `CN1CCN(C(=O)COc2ccc(S(=O)(=O)Nc3ccc(Cl)cc3)cc2)CC1` as the compound, how does the “activity change, negative = inhibition” value read?
A: inactive: -5.31%

Q: Which Potency does the source give for `Cc1cc(/C=C2\C(=O)NC(=O)N(c3cccc(F)c3)C2=O)c(C)n1-c1ccc(C(=O)O)c(Cl)c1` here?
A: inconclusive [inhibitor, partial curve]

Q: Which Potency does the source give for `CC[C@H](C)/C=C(C)/C=C/C1=CC2=C(Cl)C(=O)[C@@](C)(OC(C)=O)C(=O)C2=CO1` here?
A: inconclusive [inhibitor, single point]

Q: For `CN(C)c1ccc(/C=C/c2cc[n+](C)c3ccccc23)cc1`, which Potency is on record?
A: inconclusive [inhibitor, single point]

Q: For `NC(=O)c1ccc(N=Cc2c(O)n(Cc3ccco3)c(=O)[nH]c2=O)cc1`, which Potency is on record?
A: inconclusive [inhibitor, partial curve]

Q: `O=S(=O)(c1cccc2ccccc12)N1Cc2ccccc2-n2nncc2C1` was tested. Which “activity change, negative = inhibition” value did it give?
A: inactive: 1.14%

Q: With `Cc1cccc(N2C(=O)NC(=O)/C(=C/c3ccc([N+](=O)[O-])o3)C2=O)c1` as the compound, how does the Potency read?
A: inconclusive [inhibitor, single point]

Q: With `Cc1ccc(N2C(=O)NC(=O)/C(=C\C=C\c3ccco3)C2=O)cc1C` as the compound, how does the “activity change, negative = inhibition” value read?
A: inactive: -6.24%

Q: How did the Potency turn out when `Cc1nn(Cc2ccc(Cl)cc2Cl)c(Cl)c1C(=O)NC1CCCc2ccccc21` (centres undefined) was run?
A: inconclusive [inhibitor, single point]

Q: `C[N+]1(C)[C@@H]2CC[C@H]1CC(OC(=O)[C@@H](CO)c1ccccc1)C2` (some centres undefined) was tested. Which Potency did it give?
A: inconclusive [inhibitor, partial curve, poor fit]

Q: Which “activity change, negative = inhibition” value does the source give for `Clc1ccc(Cn2ccnc2)cn1` here?
A: inactive: -3.29%

Q: How did the Potency turn out when `CCn1nc(/C=C/c2ccccc2)nc2c(=O)n(C)c(=O)nc1-2` was run?
A: inconclusive [inhibitor, full curve, poor fit]

Q: How did the Potency turn out when `CCOc1ccc(N2C(=O)/C(=C/c3ccco3)C(=O)NC2=S)cc1` was run?
A: inconclusive [inhibitor, partial curve, poor fit]

Q: Which Potency does the source give for `CNC(=O)Oc1cccc(-c2cn3cc(Cl)ccc3n2)c1` here?
A: inconclusive [inhibitor, single point]

Q: With `Cc1c(C(=O)O)cccc1-n1c(C)cc(/C=C2\C(=O)NC(=O)N(c3ccc4c(c3)OCO4)C2=O)c1C` as the compound, how does the Potency read?
A: inconclusive [inhibitor, partial curve, poor fit]

Q: Which Potency does the source give for `CCOC(=O)C1CCN(/C=C2/C(=O)NC(=O)N(Cc3ccco3)C2=O)CC1` here?
A: inconclusive [inhibitor, single point]

Q: `O=C1NC(=S)N(C2CC2)C(=O)/C1=C/c1ccc2c(c1)CCN2CCCCl` was tested. Which “activity change, negative = inhibition” value did it give?
A: inactive: -8.93%

Q: `Cn1ncnc2c(=O)n(C)c(=O)nc1-2` was tested. Which Potency did it give?
A: inconclusive [inhibitor, full curve, poor fit]

Q: For `O=C1NC(=O)N(CCc2ccc(F)cc2)C(=O)/C1=C/c1ccco1`, which Potency is on record?
A: inconclusive [inhibitor, partial curve, poor fit]
